# Test results from PubChem BioAssay (NCATS).
# “And” between values parts separate entries of the source, which are not always exact repeats. Equal values may be shown once. The shares of active, inactive and inconclusive entries below differ from those in the screen. For some of these results: Potencies of inconclusive entries are doubtful fits and often do not repeat. For some of these results: A note “side channel” means that the fit belongs to a control or component signal, not to the main read-out. The source made the active and inactive calls. Unless noted, the call rests on the fitted dose curve; in most records, active means well fitted curve in the direction sought with a large enough effect; inconclusive means small, poorly fitted or top-dose-only effect, or another doubt; inactive means no such curve, though single readings can be large; an effect the other way counts as inactive or inconclusive.
# Tests used:
# [1] = target: Ferritin light chain (Equus caballus) (UniProt P02791); experiment: qHTS Validation Assay for Identification of Novel General Anesthetics (AID 2323); further: potency means the concentration at half of the fitted maximal effect; on activity change, negative = inhibition: on the % scale 0 is the no-effect control and ±100 the full control effect
# Chain of UniProt P02791 (P02791 whole entry, looked up): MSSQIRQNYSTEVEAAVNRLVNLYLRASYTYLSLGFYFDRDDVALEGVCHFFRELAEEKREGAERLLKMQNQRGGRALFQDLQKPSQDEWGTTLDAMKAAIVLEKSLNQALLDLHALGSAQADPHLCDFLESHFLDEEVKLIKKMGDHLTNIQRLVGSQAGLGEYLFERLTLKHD
# In short: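 Normalized fluorescence response, scaled between free 1-AMA and 1-AMA/apoferritin complex, fitted to a four-parameter Hill equation for concentration-effect values. Binding mix: 10 uM horse-spleen apoferritin, 50% saturated 1-AMA in PBS; read 380/535 nm after 10 min.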
# [2] = qHTS for Inhibitors of ATXN expression: Validation (AID 588378); further: nearly all actives have a fitted effect of over 75% in size; further: potency means the concentration at half of the fitted maximal effect; on activity change, negative = inhibition: on the % scale 0 is the no-effect control and ±100 the full control effect
# In short: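 After a 2 h attachment and 24 h compound incubation, HEK293-ATXN2-FFLuc wells are read for fluorescence at 405 nm excitation/525 nm emission as a viability measure, then for Bright-Glo luminescence reflecting ATXN2 expression.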
# [3] = qHTS Assay for Identification of Small Molecule Agonists for Thrombopoietin (TPO) Signaling Pathway (AID 917); further: potency means the concentration at half of the fitted maximal effect
# In short: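 IL-3-dependent murine pro-B Ba/F3 cells, stably transfected with human TPO receptor and GpIIb-promoter luciferase, are incubated 24 hrs at 37 C with test compound and 26 pM TPO; luciferase signal is read after 10 min at room temperature.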
# [4] = Quantitative high throughput screen for delayed death inhibitors of the malarial parasite plastid, 96 hour incubation (AID 488745); further: potency means the concentration at half of the fitted maximal effect; nearly all actives have a fitted effect of over 70% in size
# In short: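 Luciferase-expressing P. falciparum in erythrocytes (2% hematocrit, 0.1% parasitemia) incubated with compound for 96 h at 37 C, 5% CO2, in RPMI 1640 with 0.5% Albumax. Growth inhibition read as decreased luminescence.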
# [5] = target: ATPase family AAA domain-containing protein 5 (Homo sapiens) (UniProt Q96QE3); experiment: Validation screen for small molecules that inhibit ELG1-dependent DNA repair in human embryonic kidney (HEK293T) cells expressing luciferase-tagged ELG1 (AID 493107); details: HEK293T ELG1-luciferase level, luminescence, 5-fluorouridine co-treatment, 16 h; activity change, negative = decrease: at 46.1 µM (top of the series); further: potency means the concentration at half of the fitted maximal effect; nearly all actives have a fitted effect of over 70% in size
# In short: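 HEK293T cells expressing luciferase-tagged ELG1, 2,000 per well, treated with 5-fluorouridine plus compound for 16 h at 37 C. ONE-Glo luminescence after 30 min at room temperature reports ELG1 reporter level.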
# [6] = target: Tyrosine-protein phosphatase non-receptor type substrate 1 (Homo sapiens) + Leukocyte surface antigen CD47 (Homo sapiens) (UniProt P78324+Q08722); experiment: CD47-SIRPalpha protein protein interaction - LANCE assay qHTS validation (AID 1347057; active means well fitted curve in the direction sought with a large enough effect in the signal ratio, with a control signal flat, not every such curve was filed as active; inconclusive means small, poorly fitted or top-dose-only effect, or effect the other way, or a change in a side signal; inactive means no such curve, though single readings can be large or run the other way; the % refers to the signal ratio; further: potency means the concentration at half of the fitted maximal effect; on activity change, negative = inhibition: 0% is about no effect)
# Chain of UniProt P78324 (P78324 whole entry, looked up): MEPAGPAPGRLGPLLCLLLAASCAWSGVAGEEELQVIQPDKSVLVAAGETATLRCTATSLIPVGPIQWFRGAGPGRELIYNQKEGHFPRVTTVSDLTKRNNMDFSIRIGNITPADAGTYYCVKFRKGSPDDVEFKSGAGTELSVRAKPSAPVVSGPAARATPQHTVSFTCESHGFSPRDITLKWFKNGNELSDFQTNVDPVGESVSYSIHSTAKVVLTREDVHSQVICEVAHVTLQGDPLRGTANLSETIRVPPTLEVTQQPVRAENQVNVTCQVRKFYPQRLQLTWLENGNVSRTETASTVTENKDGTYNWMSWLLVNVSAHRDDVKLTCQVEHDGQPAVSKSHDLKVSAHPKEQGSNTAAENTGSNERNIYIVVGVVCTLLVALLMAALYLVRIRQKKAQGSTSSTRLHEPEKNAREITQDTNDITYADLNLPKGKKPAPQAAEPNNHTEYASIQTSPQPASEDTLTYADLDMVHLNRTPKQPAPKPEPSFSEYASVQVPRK
# Chain of UniProt P78324 (Q08722 whole entry, looked up): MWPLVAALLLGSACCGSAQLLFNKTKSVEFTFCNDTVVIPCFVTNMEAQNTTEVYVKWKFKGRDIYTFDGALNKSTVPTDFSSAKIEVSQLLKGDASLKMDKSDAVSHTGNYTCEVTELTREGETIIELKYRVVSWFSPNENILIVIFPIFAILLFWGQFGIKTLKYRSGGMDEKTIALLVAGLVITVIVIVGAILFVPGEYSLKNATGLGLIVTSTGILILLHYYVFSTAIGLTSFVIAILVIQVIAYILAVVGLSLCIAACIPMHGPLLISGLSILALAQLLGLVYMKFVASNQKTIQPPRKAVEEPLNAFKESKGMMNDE
# In short: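 First, His-tagged CD47 and Eu-labelled anti-His antibody met the compound for 30 min; next, site-specifically biotinylated SIRPalpha was added for 30 min; finally streptavidin-APC was added before reading the TR-FRET ratio.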
# Papain (Carica papaya) = Papain (Carica papaya) (UniProt P00784); experiment: Primary qHTS assay for inhibitors of the protease papain (AID 1645873);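 further: papain turnover of Z-FR-AMC read as the AMC fluorescence gain over 10 min; potency means the concentration at half of the fitted maximal effect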
# Chain of UniProt P00784 (P00784 whole entry, looked up): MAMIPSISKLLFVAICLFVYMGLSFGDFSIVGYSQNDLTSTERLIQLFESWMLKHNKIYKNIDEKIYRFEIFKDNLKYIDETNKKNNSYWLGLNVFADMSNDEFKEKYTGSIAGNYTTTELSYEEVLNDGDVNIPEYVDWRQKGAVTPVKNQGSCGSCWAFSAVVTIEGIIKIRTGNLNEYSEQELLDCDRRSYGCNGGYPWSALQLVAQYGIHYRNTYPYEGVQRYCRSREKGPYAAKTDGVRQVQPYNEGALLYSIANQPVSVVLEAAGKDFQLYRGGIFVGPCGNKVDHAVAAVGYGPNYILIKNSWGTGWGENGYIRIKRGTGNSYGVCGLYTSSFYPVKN
# [7] = target: Phospholipid hydroperoxide glutathione peroxidase GPX4 (Homo sapiens) (UniProt P36969); experiment: Primary qHTS Assay for Inhibitors of Recombinant Selenoprotein Glutathione Peroxidase 4 (GPX4) (AID 1845192); details: activity change, negative = inhibition: at 50 µM (top of the series) unless noted; further: nearly all actives have a fitted effect of over 65% in size; further: potency means the concentration at half of the fitted maximal effect
# Chain of UniProt P36969 (P36969 whole entry, looked up): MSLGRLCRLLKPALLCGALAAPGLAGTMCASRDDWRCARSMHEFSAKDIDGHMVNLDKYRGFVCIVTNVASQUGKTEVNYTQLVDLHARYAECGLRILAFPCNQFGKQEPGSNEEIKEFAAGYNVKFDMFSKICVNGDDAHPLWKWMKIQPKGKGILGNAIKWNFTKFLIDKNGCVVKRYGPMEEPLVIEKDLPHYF
# In short: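 NADPH consumption, followed by fluorescence at 340/450 nm between 0 and 15 min, reports GPX4 activity via coupled glutathione reductase (100 nM). Enzyme 200 nM was pre-exposed to compound 30 min; 0.5 mM cumene hydroperoxide and 1 mM GSH served as substrates.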
# [8] = target: Muscarinic acetylcholine receptor M1 (Rattus norvegicus) (UniProt P08482); experiment: qHTS Assay for Antagonists of Acetylcholine Muscarinic M1 Receptor: Measurement of IP-One Response (AID 944); further: nearly all actives have a fitted effect of over 75% in size; further: potency means the concentration at half of the fitted maximal effect
# Chain of UniProt P08482 (P08482 whole entry, looked up): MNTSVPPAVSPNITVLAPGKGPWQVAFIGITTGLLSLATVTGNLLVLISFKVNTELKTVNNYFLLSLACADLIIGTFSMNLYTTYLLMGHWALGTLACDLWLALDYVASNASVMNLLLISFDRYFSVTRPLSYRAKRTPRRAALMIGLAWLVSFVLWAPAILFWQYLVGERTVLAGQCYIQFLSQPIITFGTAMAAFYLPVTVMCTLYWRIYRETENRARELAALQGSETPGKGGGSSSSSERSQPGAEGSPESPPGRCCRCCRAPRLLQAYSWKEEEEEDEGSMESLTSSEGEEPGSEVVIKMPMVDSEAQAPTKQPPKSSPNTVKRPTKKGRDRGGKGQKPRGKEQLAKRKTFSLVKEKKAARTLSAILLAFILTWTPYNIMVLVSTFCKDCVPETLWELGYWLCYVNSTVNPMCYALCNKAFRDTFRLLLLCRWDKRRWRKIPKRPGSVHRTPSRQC
# [9] = target: Thioredoxin reductase 1, cytoplasmic (Rattus norvegicus) (UniProt O89049); experiment: qHTS Assay for Inhibitors of Mammalian Selenoprotein Thioredoxin Reductase 1 (TrxR1) (AID 488773); details: Potency: inhibition; further: nearly all actives have a fitted effect of over 40% in size; further: potency means the concentration at half of the fitted maximal effect
# Chain of UniProt O89049 (O89049 whole entry, looked up): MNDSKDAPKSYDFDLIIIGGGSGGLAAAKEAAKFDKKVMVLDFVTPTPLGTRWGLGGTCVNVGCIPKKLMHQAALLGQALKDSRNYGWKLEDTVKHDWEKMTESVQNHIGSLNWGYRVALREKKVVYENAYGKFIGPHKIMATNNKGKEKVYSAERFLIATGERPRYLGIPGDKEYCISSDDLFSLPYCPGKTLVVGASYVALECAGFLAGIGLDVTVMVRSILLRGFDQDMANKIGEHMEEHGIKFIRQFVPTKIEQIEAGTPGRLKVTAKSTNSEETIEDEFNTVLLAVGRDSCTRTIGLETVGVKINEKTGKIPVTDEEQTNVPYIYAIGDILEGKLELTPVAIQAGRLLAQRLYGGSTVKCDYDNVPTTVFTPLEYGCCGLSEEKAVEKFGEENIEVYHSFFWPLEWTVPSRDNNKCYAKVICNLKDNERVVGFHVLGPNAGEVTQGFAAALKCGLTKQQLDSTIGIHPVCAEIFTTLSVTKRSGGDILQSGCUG
# In short: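 Steps: enzyme (90 nM) plus NADPH (400 uM final), 5 min at ~22 deg C; compound added, 15 min; selenite (400 uM final) added; fluorescence followed for 8 min. Concentration-response curves derived from the normalized delta values.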
# [10] = target: Glutaminase kidney isoform, mitochondrial (Homo sapiens) (UniProt O94925); experiment: qHTS for Inhibitors of Glutaminase (GLS): LOPAC Validation (AID 624146); further: nearly all actives have a fitted effect of over 60% in size; further: potency means the concentration at half of the fitted maximal effect
# Chain of UniProt O94925 (O94925 whole entry, looked up, canonical isoform): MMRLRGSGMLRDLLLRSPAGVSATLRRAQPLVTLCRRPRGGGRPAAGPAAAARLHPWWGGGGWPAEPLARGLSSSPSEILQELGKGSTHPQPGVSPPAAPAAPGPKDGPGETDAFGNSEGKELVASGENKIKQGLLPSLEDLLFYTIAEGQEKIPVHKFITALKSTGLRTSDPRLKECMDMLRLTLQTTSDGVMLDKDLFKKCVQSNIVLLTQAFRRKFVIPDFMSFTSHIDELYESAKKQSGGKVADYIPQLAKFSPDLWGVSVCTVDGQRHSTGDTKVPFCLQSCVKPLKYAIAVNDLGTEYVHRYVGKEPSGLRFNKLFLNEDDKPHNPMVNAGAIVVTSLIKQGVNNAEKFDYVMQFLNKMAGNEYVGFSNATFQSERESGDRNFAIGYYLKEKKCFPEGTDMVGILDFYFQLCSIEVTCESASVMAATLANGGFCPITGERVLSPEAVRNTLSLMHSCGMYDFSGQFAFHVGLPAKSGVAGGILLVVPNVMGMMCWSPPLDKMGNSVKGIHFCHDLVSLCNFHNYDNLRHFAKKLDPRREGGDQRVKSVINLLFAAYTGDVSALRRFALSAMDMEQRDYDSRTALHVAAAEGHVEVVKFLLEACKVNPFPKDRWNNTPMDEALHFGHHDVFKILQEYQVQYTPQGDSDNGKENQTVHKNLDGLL
# In short: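 Human kidney-isoform GLS in 45 mM KH2PO4 pH 8.2, 0.02% Tween-20, with compound, started with 1mM L-Glutamine (added stock). Glutamate oxidase/HRP/Amplex red coupled fluorescence read at start and after 30 min at RT.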
# [11] = target: Mitogen-activated protein kinase 10 (Mus musculus) (UniProt Q61831); experiment: JNK3 AlphaScreen Assay (AID 530; active means well fitted curve in either direction with a large enough effect, not every such curve was filed as active; inconclusive means small, poorly fitted or top-dose-only effect, or another doubt;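 further: kinase came from lysate of stimulated human HepG2 cells; signal reports phosphorylation of biotinylated GST-cJun 1-79 at Ser73 with 10 µM ATP; potency means the concentration at half of the fitted maximal effect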); details: JNK3 lysate, c-Jun phosphorylation; activity change, negative = inhibition: at 57.1 µM (top of the series)
# In short: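 Compound titrations were preincubated 15 minutes at room temperature with substrate, antibody and pre-activated JNK3-containing HepG2 lysate. Reactions were started with 10 uM ATP and stopped with EDTA-containing bead buffer for AlphaScreen detection.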
# [12] = target: Calcium and integrin-binding protein 1 (Homo sapiens) (UniProt Q99828); experiment: Validation qHTS for Identification of Calcium Integrin Binding protein 1 (CIB1) Competitor (AID 1508618); further: potency means the concentration at half of the fitted maximal effect
# Chain of UniProt Q99828 (Q99828 whole entry, looked up): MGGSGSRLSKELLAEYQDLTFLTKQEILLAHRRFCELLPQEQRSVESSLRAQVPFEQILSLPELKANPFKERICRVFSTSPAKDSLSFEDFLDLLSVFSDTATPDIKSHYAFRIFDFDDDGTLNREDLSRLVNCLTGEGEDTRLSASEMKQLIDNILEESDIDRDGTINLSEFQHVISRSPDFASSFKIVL
# In short: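 CIB1-GST (1 uM final) in 5 mM HEPES pH 7.4, 125 mM NaCl, 5 mM CaCl2, 0.01% Tween20 was preincubated 15 min at room temperature with compound (up to 114 uM), then FITC-alphaIIb peptide (100 nM) added for 15 min; fluorescence polarization read.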
# [13] = Stat Signaling Pathway (AID 446; active means well fitted curve in either direction with a large enough effect, not every such curve was filed as active; inconclusive means small, poorly fitted or top-dose-only effect, or another doubt;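 further: ME-180 cervical cancer cells given 40 pM IL-6 alongside compound; SIE-controlled beta-lactamase reporter measured as 460/530 nm FRET emission ratio; top concentration of the series differs between compounds; on the % scale 0 is the no-effect control and ±100 the full control effect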); details: ME-180 SIE beta-lactamase reporter, IL-6 stimulated, 5 h; at 38 µM (top of the series)
# In short: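 ME-180 SIE-bla cells; overnight plating; cpd + IL-6 40 pM, 5 h, 37 C; LiveBLAzer 2.5 h RT; 460/530 nm emission ratio. Normalized to 300 pM IL-6 and 125 nM JAK inhibitor controls.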
# [14] = qHTS for differential inhibitors of proliferation of Plasmodium falciparum line D10 (AID 1877);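 further: potency means the concentration at half of the fitted maximal effect; parasites grown with compound for 72 h before DNA staining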
# [15] = qHTS for Inhibitors of ATXN expression: Validation of Cytotoxic Assay (AID 588349); further: on the % scale 0 is the no-effect control and ±100 the full control effect
# In short: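 HEK293 cells treated with titrated compound for 72 hr at 37 degrees C; viability read as intracellular ATP by CellTiter Glo luminescence.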
# [16] = target: Endonuclease 4 (Escherichia coli (strain K12)) (UniProt P0A6C1); experiment: Counterscreen for APE1 Inhibitors: qHTS Validation Assay for Inhibitors of Endonuclease IV (AID 1708); further: potency means the concentration at half of the fitted maximal effect
# In short: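 qHTS concentration-response format; LOPAC1280 tested under APE1-screen conditions. 2 nM enzyme, 15 min compound preincubation at RT, then 50 nM TAMRA/BHQ-2 abasic substrate; kinetic fluorescence read, three reads at 60 s intervals.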
# [17] = target: Ubiquitin carboxyl-terminal hydrolase 1 (Homo sapiens) (UniProt O94782); experiment: Inhibitors of USP1/UAF1: Pilot qHTS (AID 504865);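 further: rhodamine fluorescence freed from ubiquitin-rhodamine substrate followed over time; potency means the concentration at half of the fitted maximal effect; nearly all actives have a fitted effect of over 35% in size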
# Chain of UniProt O94782 (O94782 whole entry, looked up): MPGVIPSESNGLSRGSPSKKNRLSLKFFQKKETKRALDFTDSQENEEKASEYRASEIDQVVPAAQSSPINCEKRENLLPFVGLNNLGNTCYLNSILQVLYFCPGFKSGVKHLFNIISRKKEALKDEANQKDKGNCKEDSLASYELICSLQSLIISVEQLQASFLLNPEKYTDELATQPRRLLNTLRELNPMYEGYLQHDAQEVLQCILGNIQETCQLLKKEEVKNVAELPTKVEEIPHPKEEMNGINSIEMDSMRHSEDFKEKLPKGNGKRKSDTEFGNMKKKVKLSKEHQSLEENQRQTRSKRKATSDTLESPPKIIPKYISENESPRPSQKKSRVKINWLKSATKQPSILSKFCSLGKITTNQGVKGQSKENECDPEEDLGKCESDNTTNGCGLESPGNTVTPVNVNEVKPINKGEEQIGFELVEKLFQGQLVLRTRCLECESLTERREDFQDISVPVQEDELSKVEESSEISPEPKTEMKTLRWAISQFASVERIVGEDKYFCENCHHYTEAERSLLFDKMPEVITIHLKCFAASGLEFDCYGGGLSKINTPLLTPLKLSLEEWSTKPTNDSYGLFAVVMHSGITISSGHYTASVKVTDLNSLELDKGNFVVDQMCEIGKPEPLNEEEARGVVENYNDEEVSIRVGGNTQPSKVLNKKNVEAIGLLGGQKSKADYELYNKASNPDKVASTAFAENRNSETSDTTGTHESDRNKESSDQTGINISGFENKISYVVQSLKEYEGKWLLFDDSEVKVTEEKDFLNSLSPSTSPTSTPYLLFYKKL
# In short: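 Enzyme-free wells gave the negative control, while test wells held 1nM USP1/UAF1 preincubated with compound for 15 min at room temperature. Ub-Rho at 150nM final started the reaction, and fluorescence at 480/540 nm was recorded kinetically.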
# Tags describe the fitted curve by direction and shape.
smiles,measurement,setting,value
N[C@@H](CCCC(=O)O)C(=O)O,Potency,[1],inactive
same,Potency,[2],inactive
CNC(=O)c1cc2c(cn1)[nH]c1ccccc12,Potency,[3],"inconclusive: 3.16 µM [activator, partial curve]"
same,Potency,[4],"inconclusive: 16.5 µM [activator, single point]"
same,Potency,[5],"inconclusive: 25.9 µM [activator, partial curve]"
same,Potency,[6],inactive
same,Potency,Papain (Carica papaya),active: 25.1 µM
same,Potency,[7],inactive
O=C(O)Cc1ccc(O)c(O)c1,Potency,[3],"inconclusive: 10 µM [inhibitor, single point]"
same,Potency,[8],"inconclusive: 5.62 µM [inhibitor, partial curve, poor fit]"
same,Potency,[9],active: 7.52 µM
same,Potency,[10],"inconclusive: 0.794 µM [inhibitor, full curve, poor fit]"
same,Potency,Papain (Carica papaya),"inconclusive: 17.8 µM [inhibitor, partial curve, poor fit]"
O=c1[nH]c2cc(Cl)ccc2c(O)c1-c1ccc(Oc2ccccc2)cc1,Potency,[11],"inconclusive: 316 nM [activator, partial curve, poor fit]"
same,Potency,[8],inactive
same,Potency,[10],inactive
same,Potency,[12],inactive
Cn1cnc2c(NCc3ccccc3)nc(NCCO)nc21,"activity, negative = inhibition",[13],inactive: -14.9%
same,Potency,[11],"inconclusive: 10 µM [inhibitor, partial curve] and inconclusive: 12.6 µM [inhibitor, partial curve]"
same,Potency,[14],"inconclusive: 0.794 µM [inhibitor, full curve, poor fit]"
same,Potency,[4],"inconclusive: 9.28 µM [inhibitor, single point]"
O=[N+]([O-])c1cccc2c(Br)[nH]nc12,"activity, negative = inhibition",[13],inconclusive: -40.5% [inhibitor]
same,Potency,[11],"inconclusive: 39.8 µM [activator, single point] and inconclusive: 39.8 µM [inhibitor, single point]"
same,Potency,[3],inactive
same,Potency,[8],"inconclusive: 25.1 µM [inhibitor, partial curve, poor fit]"
same,Potency,[15],inactive
same,Potency,[12],"inconclusive: 79.4 µM [inhibitor, partial curve, poor fit]"
CN1C2CCC1CC(OC(=O)c1c[nH]c3ccccc13)C2 (stereo unspecified),Potency,[14],active: 11.2 µM
same,Potency,[2],"inconclusive: 25.1 µM [inhibitor, partial curve, poor fit]"
Nc1ncnc2c1nc(Br)n2C1OC2COP(=O)(O)O[C@@H]2C1O (stereo partly specified),Potency,[9],inactive
N#C/C(=C\c1ccc(O)c(O)c1)C(=O)NCCCNC(=O)/C(C#N)=C/c1ccc(O)c(O)c1,Potency,[11],"inconclusive: 15800 nM [inhibitor, partial curve, poor fit]"
same,Potency,[10],inactive
same,Potency,[6],"inconclusive: 16.5 µM [side channel, falling, single point]"
CCCCCCC/C=C\CCCCCCCCC(=O)O,Potency,[16],"inconclusive: 22.4 µM [inhibitor, partial curve]"
same,Potency,[1],active: 31.6 µM
same,Potency,[6],"inconclusive: 18.5 µM [inhibitor, single point]"
same,Potency,[12],"inconclusive: 31.6 µM [inhibitor, partial curve, poor fit]"
same,Potency,Papain (Carica papaya),"inconclusive: 3.16 µM [inhibitor, partial curve]"
Cc1nc(N=Nc2cc(S(=O)(=O)O)c3cc([N+](=O)[O-])cc(S(=O)(=O)O)c3c2)c(COP(=O)(O)O)c(C=O)c1O,"activity, negative = inhibition",[13],inconclusive: -30.9% [inhibitor]
same,Potency,[11],"inconclusive: 50.1 nM [activator, full curve]"
same,Potency,[3],"inconclusive: 15.8 µM [inhibitor, partial curve]"
same,Potency,[16],active: 15.8 µM
same,Potency,[14],"inconclusive: 12.6 µM [inhibitor, partial curve]"
same,Potency,[1],"inconclusive: 39.8 µM [inhibitor, partial curve]"
same,Potency,[9],"inconclusive: 0.189 µM [inhibitor, full curve, poor fit]"
same,Potency,[12],"inconclusive: 7.94 µM [inhibitor, full curve]"
same,Potency,Papain (Carica papaya),"inconclusive: 25.1 µM [inhibitor, single point]"
CCCCCCCCCCCCCCC[C@H](O)[C@H](N)CO,"activity, negative = inhibition",[13],inconclusive: 37.4% [activator]
same,Potency,[3],"inconclusive: 12.6 µM [inhibitor, partial curve]"
same,Potency,[16],active: 31.6 µM
same,Potency,[14],"inconclusive: 15.8 µM [inhibitor, single point]"
same,Potency,[1],"inconclusive: 31.6 µM [inhibitor, partial curve]"
same,Potency,[17],active: 79.4 µM
Cn1c(=O)c2[nH]c(-c3ccc(S(=O)(=O)O)cc3)nc2n(C)c1=O,"activity, negative = inhibition",[13],inactive: 18%
same,Potency,[14],"inconclusive: 17.8 µM [inhibitor, single point]"
same,Potency,[17],"inconclusive: 0.355 µM [inhibitor, full curve, poor fit]"
same,Potency,[10],"inconclusive: 0.1 µM [inhibitor, full curve, poor fit]"
same,Potency,[6],"inconclusive: 18.5 µM [side channel, falling, single point]"
same,Potency,[12],"inconclusive: 50.1 µM [inhibitor, partial curve]"
same,Potency,Papain (Carica papaya),active: 25.1 µM
same,Potency,[7],active: 11.2 µM
